Data as given in the supplement of paper PMC4967469.

Compound: FC(F)c1nc2ccccc2n1-c1nc(N2CCOCC2)nc(N2CCOCC2)n1 [ZSTK474]
Assay: Viability of human cancer cell lines after 72 h of drug (GDSC screen)
Procedure: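 Human cancer cell lines in 384-well plates, medium with 10% serum, drug for 72 h over a 256-fold dose range (nine 2-fold or five 4-fold steps up to the top dose). Adherent lines were fixed and stained with the nucleic acid dye Syto60, suspension lines read with resazurin; signal relative to control wells, capped at 0 and 100%. One two-parameter sigmoid per drug and line, fitted in a mixed model over all curves with the slope shared within a line.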

ML-2 (acute myeloid leukaemia, suspension, top dose 5.12 µM)
AUC: 0.267
IC50: 75.8 nM

MLMA (hairy cell leukaemia, semi-adherent, top dose 5.12 µM)
AUC: 0.249
IC50: 60.5 nM

MMAC-SF (melanoma, adherent, top dose 5.12 µM)
AUC: 0.729
IC50: 1480 nM

MN-60 (B-cell leukaemia, suspension, top dose 5.12 µM)
AUC: 0.503
IC50: 326 nM

MOG-G-CCM (glioma, adherent, top dose 5.12 µM)
AUC: 0.965
IC50: > 5120 nM

MOLM-13 (acute myeloid leukaemia, suspension, top dose 5.12 µM)
AUC: 0.33
IC50: 111 nM

MOLP-8 (myeloma, suspension, top dose 5.12 µM)
AUC: 0.286
IC50: 81.4 nM

MOLT-4 (lymphoblastic leukaemia, suspension, top dose 5.12 µM)
AUC: 0.374
IC50: 154 nM

MOLT-13 (T-cell lymphoblastic leukaemia, suspension, top dose 5.12 µM)
AUC: 0.897
IC50: 5030 nM

MONO-MAC-6 (acute myeloid leukaemia, suspension, top dose 5.12 µM)
AUC: 0.332
IC50: 106 nM

MPP-89 (mesothelioma, adherent, top dose 5.12 µM)
AUC: 0.936
IC50: > 5120 nM

MRK-nu-1 (breast, suspension, top dose 5.12 µM)
AUC: 0.94
IC50: > 5120 nM

MS751 (cervix, adherent, top dose 5.12 µM)
AUC: 0.978
IC50: > 5120 nM

MS-1 (small cell lung carcinoma, suspension, top dose 5.12 µM)
AUC: 0.772
IC50: 1770 nM

MSTO-211H (mesothelioma, adherent, top dose 5.12 µM)
AUC: 0.977
IC50: > 5120 nM

MV-4-11 (leukaemia, suspension, top dose 5.12 µM)
AUC: 0.429
IC50: 212 nM

MY-M12 (leukaemia, suspension, top dose 5.12 µM)
AUC: 0.488
IC50: 296 nM

MZ1-PC (pancreas, adherent, top dose 5.12 µM)
AUC: 0.58
IC50: 560 nM

MZ2-MEL (melanoma, adherent, top dose 5.12 µM)
AUC: 0.693
IC50: 1230 nM

MZ7-mel (melanoma, adherent, top dose 5.12 µM)
AUC: 0.635
IC50: 767 nM

Mewo (melanoma, adherent, top dose 5.12 µM)
AUC: 0.94
IC50: > 5120 nM

Mo-T (hairy cell leukaemia, suspension, top dose 5.12 µM)
AUC: 0.562
IC50: 473 nM

NALM-6 (B-cell leukaemia, suspension, top dose 5.12 µM)
AUC: 0.159
IC50: 37.2 nM

NAMALWA (Burkitt lymphoma, suspension, top dose 5.12 µM)
AUC: 0.455
IC50: 246 nM

NB5 (neuroblastoma, adherent, top dose 5.12 µM)
AUC: 0.661
IC50: 900 nM

NB6 (neuroblastoma, adherent, top dose 5.12 µM)
AUC: 0.802
IC50: 3210 nM

NB7 (neuroblastoma, adherent, top dose 5.12 µM)
AUC: 0.818
IC50: 3060 nM

NB10 (neuroblastoma, adherent, top dose 5.12 µM)
AUC: 0.932
IC50: > 5120 nM

NB12 (neuroblastoma, adherent, top dose 5.12 µM)
AUC: 0.785
IC50: 3060 nM

NB13 (neuroblastoma, adherent, top dose 5.12 µM)
AUC: 0.979
IC50: > 5120 nM

NB14 (neuroblastoma, adherent, top dose 5.12 µM)
AUC: 0.954
IC50: > 5120 nM

NB17 (neuroblastoma, adherent, top dose 5.12 µM)
AUC: 0.947
IC50: > 5120 nM

NB69 (neuroblastoma, adherent, top dose 5.12 µM)
AUC: 0.563
IC50: 466 nM

NB(TU)1-10 (neuroblastoma, adherent, top dose 5.12 µM)
AUC: 0.974
IC50: > 5120 nM

NB-4 (acute myeloid leukaemia, suspension, top dose 5.12 µM)
AUC: 0.556
IC50: 441 nM

NCC021 (kidney, adherent, top dose 5.12 µM)
AUC: 0.625
IC50: 753 nM

NCI-H23 (lung adenocarcinoma, adherent, top dose 5.12 µM)
AUC: 0.928
IC50: > 5120 nM

NCI-H28 (mesothelioma, adherent, top dose 5.12 µM)
AUC: 0.961
IC50: > 5120 nM

NCI-H64 (small cell lung carcinoma, suspension, top dose 5.12 µM)
AUC: 0.434
IC50: 221 nM

NCI-H69 (small cell lung carcinoma, suspension, top dose 5.12 µM)
AUC: 0.709
IC50: 1340 nM

NCI-H82 (small cell lung carcinoma, suspension, top dose 5.12 µM)
AUC: 0.937
IC50: > 5120 nM

NCI-H187 (small cell lung carcinoma, suspension, top dose 5.12 µM)
AUC: 0.921
IC50: > 5120 nM

NCI-H196 (small cell lung carcinoma, adherent, top dose 5.12 µM)
AUC: 0.935
IC50: > 5120 nM

NCI-H209 (small cell lung carcinoma, suspension, top dose 5.12 µM)
AUC: 0.935
IC50: > 5120 nM

NCI-H211 (small cell lung carcinoma, adherent, top dose 5.12 µM)
AUC: 0.748
IC50: 1600 nM

NCI-H226 (lung squamous cell carcinoma, adherent, top dose 5.12 µM)
AUC: 0.86
IC50: 4670 nM

NCI-H292 (lung adenocarcinoma, adherent, top dose 5.12 µM)
AUC: 0.722
IC50: 1590 nM

NCI-H322M (lung adenocarcinoma, suspension, top dose 5.12 µM)
AUC: 0.819
IC50: 3850 nM

NCI-H345 (small cell lung carcinoma, suspension, top dose 5.12 µM)
AUC: 0.99
IC50: > 5120 nM

NCI-H358 (lung adenocarcinoma, adherent, top dose 5.12 µM)
AUC: 0.703
IC50: 1280 nM

NCI-H441 (lung adenocarcinoma, adherent, top dose 5.12 µM)
AUC: 0.972
IC50: > 5120 nM

NCI-H446 (small cell lung carcinoma, semi-adherent, top dose 5.12 µM)
AUC: 0.723
IC50: 1440 nM

NCI-H460 (large cell lung carcinoma, adherent, top dose 5.12 µM)
AUC: 0.982
IC50: > 5120 nM

NCI-H510A (small cell lung carcinoma, semi-adherent, top dose 5.12 µM)
AUC: 0.972
IC50: > 5120 nM

NCI-H520 (lung squamous cell carcinoma, adherent, top dose 5.12 µM)
AUC: 0.388
IC50: 155 nM

NCI-H522 (lung adenocarcinoma, adherent, top dose 5.12 µM)
AUC: 0.942
IC50: > 5120 nM

NCI-H524 (small cell lung carcinoma, suspension, top dose 5.12 µM)
AUC: 0.838
IC50: 2940 nM

NCI-H526 (small cell lung carcinoma, suspension, top dose 5.12 µM)
AUC: 0.792
IC50: 2200 nM

NCI-H596 (lung adenocarcinoma, adherent, top dose 5.12 µM)
AUC: 0.654
IC50: 973 nM

NCI-H630 (large intestine, adherent, top dose 5.12 µM)
AUC: 0.867
IC50: > 5120 nM

NCI-H647 (non-small cell lung carcinoma, adherent, top dose 5.12 µM)
AUC: 0.601
IC50: 614 nM

NCI-H650 (lung adenocarcinoma, adherent, top dose 5.12 µM)
AUC: 0.72
IC50: 1440 nM

NCI-H661 (large cell lung carcinoma, adherent, top dose 5.12 µM)
AUC: 0.861
IC50: > 5120 nM

NCI-H716 (large intestine, suspension, top dose 5.12 µM)
AUC: 0.798
IC50: 3200 nM

NCI-H720 (lung carcinoid, suspension, top dose 5.12 µM)
AUC: 0.99
IC50: > 5120 nM

NCI-H727 (lung carcinoid, adherent, top dose 5.12 µM)
AUC: 0.87
IC50: > 5120 nM

NCI-H747 (large intestine, adherent, top dose 5.12 µM)
AUC: 0.458
IC50: 239 nM

NCI-H748 (small cell lung carcinoma, suspension, top dose 5.12 µM)
AUC: 0.892
IC50: > 5120 nM

NCI-H810 (large cell lung carcinoma, adherent, top dose 5.12 µM)
AUC: 0.837
IC50: 3220 nM

NCI-H838 (lung adenocarcinoma, adherent, top dose 5.12 µM)
AUC: 0.976
IC50: > 5120 nM

NCI-H841 (small cell lung carcinoma, adherent, top dose 5.12 µM)
AUC: 0.861
IC50: 4370 nM

NCI-H847 (small cell lung carcinoma, adherent, top dose 5.12 µM)
AUC: 0.975
IC50: > 5120 nM

NCI-H1048 (small cell lung carcinoma, adherent, top dose 5.12 µM)
AUC: 0.426
IC50: 205 nM

NCI-H1092 (small cell lung carcinoma, suspension, top dose 5.12 µM)
AUC: 0.874
IC50: 5050 nM

By IC50 is meant the dose at which the fit gives 50% viability; a limit (>, <) means that the fit lies beyond the doses tested. The AUC spans the tested range (256-fold, ending at the top dose) of the same fit; it is 1 without any effect and falls as sensitivity rises.
